# Among all 410,000 compounds or so, about 6,400 (1.6%) were called active. Inconclusive results, whose numbers are uncertain, are shown with a selection of clear calls. The call rests on the fitted dose curve; in most records, active means well fitted inhibition curve with a large enough effect; inconclusive means small, poorly fitted or top-dose-only effect; inactive means no such curve, though single readings can be large or run the other way. No potency is given beside an inconclusive call; the fits are too rough.
# Molecular target: Glucagon-like peptide 1 receptor (Homo sapiens) (UniProt P43220)
# Assay: qHTS of GLP-1 Receptor Inverse Agonists (Inhibition Mode); further: nearly all actives have a fitted effect of over 55% in size
# Conditions: HEK293 GLP-1R CRE-luciferase, luminescence, 24 h, GLP-1R form is constitutively active; activity change, negative = inhibition: at 38.3 µM (top of the series) unless noted
# In short: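 GLP-1R inverse agonism mode: basal reporter luminescence in engineered HEK293 cells measured after one day of compound exposure at 37 deg C, with a 12 min room-temperature detection step.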
# On the % scale 0 is the no-effect control and ±100 the full control effect; potency means the concentration at half of the fitted maximal effect; tags describe the fitted curve by direction and shape.
# Sequence of UniProt P43220 (P43220 whole entry, looked up): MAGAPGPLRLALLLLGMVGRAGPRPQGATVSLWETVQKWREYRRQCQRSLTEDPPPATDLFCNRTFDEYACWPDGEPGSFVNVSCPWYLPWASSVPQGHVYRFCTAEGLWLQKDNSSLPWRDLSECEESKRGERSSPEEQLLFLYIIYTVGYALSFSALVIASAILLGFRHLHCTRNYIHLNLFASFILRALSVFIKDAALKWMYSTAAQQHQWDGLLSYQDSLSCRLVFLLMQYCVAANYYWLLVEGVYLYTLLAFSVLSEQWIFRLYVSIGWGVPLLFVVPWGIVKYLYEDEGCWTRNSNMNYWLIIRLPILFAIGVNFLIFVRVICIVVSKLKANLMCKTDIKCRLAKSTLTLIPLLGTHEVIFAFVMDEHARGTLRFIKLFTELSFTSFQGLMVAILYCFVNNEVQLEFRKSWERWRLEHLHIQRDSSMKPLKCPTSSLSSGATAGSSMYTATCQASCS
SMILES,Potency,"activity change, negative = inhibition"
C[C@H](c1ccccc1)N1C[C@@H](COCc2ccccc2)Oc2cc(N3CC[C@H](N(C)C)C3)ccc2S1(=O)=O,"inconclusive [inhibitor, partial curve]",–
COCC(C)NC(=O)c1ccccc1OC(C)=O (stereo not drawn),–,inactive: 2.45%
COc1ccc(Br)c(C(=O)OCC(=O)NC2CCCCCCC2)c1,"inconclusive [inhibitor, single point]",–
COCCOC(=O)c1[nH]c2c(c1C)C(=O)CC(c1cc(OC)c(OC)c(OC)c1)C2 (stereo not drawn),"inconclusive [inhibitor, full curve, poor fit]",–
CC1(c2ccccc2)CC(C)(C)N(C(=O)c2ccccc2Cl)c2ccccc21 (stereo not drawn),–,inactive: 10.8%
CC1Cc2ccccc2N1CC(=O)NCc1ccc2c(c1)OCO2 (stereo not drawn),"inconclusive [inhibitor, partial curve, poor fit]",–
O=C(Oc1c(-c2ccccc2Cl)oc2ccccc2c1=O)c1ccc(Cl)cc1,"inconclusive [inhibitor, partial curve, poor fit]",–
O=S(=O)(Nc1ccc(C(O)(C(F)(F)F)C(F)(F)F)cc1)c1cccc2cccnc12,"inconclusive [inhibitor, partial curve, poor fit]",–
Cc1oncc1C(=O)Nc1ccc(C(F)(F)F)cc1,"inconclusive [inhibitor, single point]",–
COc1ccc(C(Cl)=C(c2ccc(OC)cc2)c2ccc(OC)cc2)cc1,"inconclusive [inhibitor, partial curve, poor fit]",–
CC1CCc2cc(F)ccc2N1C(=O)CSc1nnc2c(n1)[nH]c1ccc(F)cc12 (stereo not drawn),"inconclusive [inhibitor, single point]",–
Cc1ccc2c(c1)N(Cc1cccc(F)c1)C(=O)C(C)O2 (stereo not drawn),"inconclusive [inhibitor, single point]",–
Cc1cccc2cc(CN(CCN(C)C)C(=S)NCc3ccco3)c(=O)[nH]c12,"inconclusive [inhibitor, single point]",–
CCC(CO)Oc1cc(NCc2cccc(C(F)(F)F)c2)c2ncn(C(C)C)c2c1 (stereo not drawn),"inconclusive [inhibitor, single point]",–
N#Cc1nc(Cc2ccccc2)oc1NCCc1ccccc1,"inconclusive [inhibitor, single point]",–
C#CCOc1ccc(/C=C2/C(=O)NN(c3ccc(F)cc3)C2=O)cc1OC,"inconclusive [inhibitor, full curve, poor fit]",–
COc1ccc(CN2C(=O)c3ccccc3C(/C=N/OCc3ccc(Cl)cc3)C2=O)cc1 (stereo not drawn),"inconclusive [inhibitor, partial curve, poor fit]",–
CC(C)c1ccc(CN2C(=O)NC3(CCCCCC3)C2=O)cc1,"inconclusive [inhibitor, single point]",–
Clc1cccc(-c2ccc(-c3nc4ccccn4c3NCc3ccccc3)cc2)c1,"inconclusive [inhibitor, partial curve, poor fit]",–
COc1ccccc1CNC(=O)C(C)n1c(=O)cc(C(F)(F)F)c2c(C)nn(C)c21 (stereo not drawn),–,inactive: 7.26%
Cc1cccc(NC(=O)CN2C(=O)CCc3ccccc32)c1C,–,inactive: -15.7%

SMILES,Potency,"activity change, negative = inhibition"
Cc1ccc(-c2nc3ccccc3[nH]2)cc1NC(=O)c1ccc2c(c1)OCO2,"inconclusive [inhibitor, single point]",–
Cc1cc(C)n2nc(SCc3cccc(F)c3)nc2n1,–,inactive: 40.5%
O=S(=O)(/C=C/c1ccccc1)NCc1ccccc1Cl,"inconclusive [inhibitor, single point]",–
Cc1ccc(C(C)(C)C)cc1S(=O)(=O)N1CC(=O)Nc2ccccc21,"inconclusive [inhibitor, single point]",–
CNc1cc(C)nc(-n2nc(C)cc2C)n1,"inconclusive [inhibitor, partial curve, poor fit]",–
O=C(NCc1cccc(C(F)(F)F)c1)C1CC(c2ccc(C(F)(F)F)cc2)=NO1 (stereo not drawn),"inconclusive [inhibitor, single point]",–
CCCOc1ccc(C(=O)CCC(=O)Nc2ccc(N3CCN(C)CC3)cc2)cc1,"inconclusive [inhibitor, partial curve]",–
Cc1cc(NC(=O)c2cc3n(n2)C(C(F)(F)F)CC(c2ccco2)N3)no1 (stereo not drawn),"inconclusive [inhibitor, single point]",–
COc1cccc(CN(C)Cc2nc(Cc3ccccc3Cl)no2)c1,"inconclusive [inhibitor, single point]",–
c1ccc(Cc2ccc(OCCN3CCOCC3)cc2)cc1,"inconclusive [inhibitor, single point]",–
COC(=O)c1c(-c2ccccc2Cl)noc1/C=C/N(C)C,"inconclusive [inhibitor, partial curve, poor fit]",–
COC(=O)CC1COc2ccccc2N1S(=O)(=O)c1ccc(Br)cc1 (stereo not drawn),"inconclusive [inhibitor, partial curve, poor fit]",–
COc1cc(CNCCSc2nnnn2C)ccc1OCc1c(F)cccc1Cl,"inconclusive [inhibitor, single point]",–
CN(C)CCN1C(=O)CCC2(C)C1=CCC1C2CCC2(C)C1CCC2(C)O (stereo not drawn),"inconclusive [inhibitor, single point]",–
CCOC1(OCC)C(c2ccc(Cl)cc2)C(C#N)(C#N)C1(OCC)OCC (stereo not drawn),"inconclusive [inhibitor, full curve, poor fit]",–
CC(C)C(C(=O)Nc1nccs1)c1ccccc1 (stereo not drawn),"inconclusive [inhibitor, partial curve, poor fit]",–
COc1ccc(N2CCN(C(CNC(=O)COc3ccccc3)c3ccco3)CC2)cc1 (stereo not drawn),"inconclusive [inhibitor, full curve, poor fit]",–
Cc1cc(NC(=O)CN(c2cccc(C)c2C)S(=O)(=O)c2ccccc2)ccc1Br,"inconclusive [inhibitor, single point]",–
COc1cccc(NC(=O)Nc2nc(SC)ns2)c1,"inconclusive [inhibitor, partial curve, poor fit]",–
C=CCOc1c(Br)cc(/C=N/NC(=O)Cc2ccc(C(F)(F)F)cc2[N+](=O)[O-])cc1OC,–,inactive: 1.71%
COc1ccc(CCC(=O)NCc2ccc3c(c2)CCN3C(=O)c2cccc(C)c2)cc1,"inconclusive [inhibitor, partial curve, poor fit]",–

SMILES,Potency,"activity change, negative = inhibition"
COc1ccc(S(=O)(=O)N2c3cc(C)ccc3OCC2C(C)(C)C)cc1 (stereo not drawn),active: 5.01 µM,–
Cc1cccc(N(C(=O)c2nsc(Cl)c2Cl)C(C(=O)NC2CCCC2)c2ccc(O)cc2)c1 (stereo not drawn),"inconclusive [inhibitor, single point]",–
O=C(NCc1ccccc1F)c1ccc(S(=O)(=O)N2CCCCCC2)cc1,"inconclusive [inhibitor, single point]",–
Cc1cc(C)n(-c2nc3ccccc3c(=O)n2OCC(=O)OCc2ccccc2)n1,"inconclusive [inhibitor, single point]",–
Cc1ccn(S(=O)(=O)c2ccc3oc(=O)ccc3c2)n1,–,inactive: 10.9%
COc1ccc(C(=O)NCCS(=O)(=O)N2CCN(C(=O)c3ccco3)CC2)cc1,"inconclusive [inhibitor, single point]",–
CCOc1ccccc1Nc1ccc2cc(S(=O)(=O)N3CCCCC3)ccc2n1,"inconclusive [inhibitor, partial curve]",–
CCCSCCCNC(=O)CN1C(=O)COc2ccc(S(=O)(=O)N3CCCCCC3)cc21,"inconclusive [inhibitor, single point]",–
CN(C)c1c([N+](=O)[O-])cc(N2C(=O)C=CC2=O)cc1[N+](=O)[O-],–,inactive: 2.04%
COc1ccc(S(=O)(=O)N2CCC(C(=O)NCc3cccnc3)CC2)cc1OC,–,inactive: 12.1%
O=[N+]([O-])c1ccc(C[n+]2cccc3ccc4cccnc4c32)cc1,"inconclusive [inhibitor, single point]",–
COc1ccc(Cn2cc(CN3CCS(=O)(=O)N(Cc4ccc(-c5cccc(Cl)c5)cc4)C(C)C3=O)nn2)cc1 (stereo not drawn),"inconclusive [inhibitor, single point]",–
Cc1ccc(OCC(=O)Nc2ccc(-c3nc4ccc(C)cc4o3)cc2)cc1,–,inactive: -0.655%
COc1ccccc1C(CNC(=O)CSc1ccc2ccccc2c1)N(C)C (stereo not drawn),"inconclusive [inhibitor, partial curve, poor fit]",–
COc1ccc([C@@H]2C[C@H](c3ccccc3)Oc3cc(C)cc(C)c32)cc1,"inconclusive [inhibitor, single point]",–
CSc1nc(N2CCN(c3ccccc3Cl)CC2)c2ccccc2n1,"inconclusive [inhibitor, single point]",–
CCCCOc1ccccc1NC(=O)Cn1c(-c2nonc2N)nc2ccccc21,"inconclusive [inhibitor, full curve, poor fit]",–
CCOC(=O)C1=CC[C@@H](c2cccc(Br)c2)N(S(=O)(=O)c2ccc(F)cc2)[C@H]1c1cccc(Cl)c1,"inconclusive [inhibitor, single point]",–
O=C(NCC1CCCCC1)C1(CC2CC(c3ccc(Cl)cc3)=NO2)CCNCC1 (stereo not drawn),"inconclusive [inhibitor, single point]",–
CCOC(=O)c1c(C)c(C(=O)NCc2cccs2)c(C)n1C,–,inactive: 1.36%
Clc1cccc(NCc2nnc(SCc3ccc(Cl)cc3Cl)o2)c1,"inconclusive [inhibitor, partial curve, poor fit]",–

# Source: PubChem BioAssay AID624417 (National Center for Advancing Translational Sciences (NCATS), 2012)
